Results on 153 variants are retold here after a collection of fitness landscapes (doi:10.1126/science.1257360).

To fix the notation:
B1: PhoQ; a variant is named by its letters at X, in order, P23837 (parent)
chain: MKKLLRLFFPLSLRVRFLLATAAVVLVLSLAYGMVALIGYSVSFDKTTFRLLRGESNLFYTLAKWENNKLHVELPENIDKQSPTMTLIYDENGQLLWAQRDVPWLMKMIQPDWLKSNGFHEIEADVNDTSLLLSGDHSIQQQLQEVREDDDDAEMTHSVAVNVYPATSRMPKLTIVVVDTIPVELKSSYMVWSWFIYVLSANLLLVIPLLWVAAWWSLRPIEALAKEVRELEEHNRELLNPATTRELTSLVRNLNRLLKSERERYDKYRTTLTDLTHSLKTPLXXLQXXLRSLRSEKMSVSDAEPVMLEQISRISQQIGYYLHRASMRGGTLLSRELHPVAPLLDNLTSALNKVYQRKGVNISLDISPEISFVGEQNDFVEVMGNVLDNACKYCLEFVEISARQTDEHLYIVVEDDGPGIPLSKREVIFDRGQRVDTLRPGQGVGLAVAREITEQYEGKIVAGESMLGGARMEVIFGRQHSAPKDE

Some of the results follow.

Variants of B1 are the subject of this test. The test is described as follows: enrichment ratio after two sorts for PhoP signalling (ratio (wild type AVST 3.29)); higher = more functional. Particulars: with PhoP (E. coli).
Consider WVPR, for which the enrichment ratio is at most 0.25.

For YVCL, the enrichment ratio came to 0.626.

Take RVTT: the enrichment ratio is at most 0.25.

As to APLS, the enrichment ratio is at most 0.25.

MLTT: the enrichment ratio is at most 0.25.

With AGCE, the enrichment ratio was found to be 6.71.

For KHWC, the enrichment ratio is at most 0.25.

On to YWHW, for which the enrichment ratio was at most 0.25.

For the variant DEVV, the enrichment ratio was at most 0.25.

For NTIN, the enrichment ratio was at most 0.25.

In the case of HLFY, the enrichment ratio is at most 0.25.

As for LIRN, the enrichment ratio is at most 0.25.

MQYL: the enrichment ratio is 10.8.

Consider WYIY, for which the enrichment ratio was at most 0.25.

TSRF: the enrichment ratio was at most 0.25.

NWCC: the enrichment ratio is at most 0.25.

As to LDDP, the enrichment ratio was at most 0.25.

For FKVE, the enrichment ratio was at most 0.25.

As for PMID, the enrichment ratio is at most 0.25.

As to LRWN, the enrichment ratio is at most 0.25.

Take ADRC: the enrichment ratio is at most 0.25.

In the case of WVNF, the enrichment ratio was at most 0.25.

As to MPVT, the enrichment ratio was at most 0.25.

For DNFW, the enrichment ratio was at most 0.25.

For KQQP, the enrichment ratio was at most 0.25.

For the variant PAVE, the enrichment ratio is at most 0.25.

Take PSDN: the enrichment ratio is at most 0.25.

Consider IAGL, for which the enrichment ratio is at most 0.25.

On to HLWC, for which the enrichment ratio was at most 0.25.

Turning to IGIH, the enrichment ratio is at most 0.25.

As for YDHD, the enrichment ratio is at most 0.25.

Consider HQFH, for which the enrichment ratio was at most 0.25.

Consider IWFC, for which the enrichment ratio is at most 0.25.

As for FKIK, the enrichment ratio was determined as 7.33.

EQHC: the enrichment ratio is at most 0.25.

In the case of DGKH, the enrichment ratio is at most 0.25.

As to FGKL, the enrichment ratio is at most 0.25.

Turning to QDWP, the enrichment ratio is at most 0.25.

VAWK: the enrichment ratio is at most 0.25.

As to ERAD, the enrichment ratio was at most 0.25.

Regarding QLVE, the enrichment ratio is at most 0.25.

For AAIR, the enrichment ratio was at most 0.25.

FQVP: the enrichment ratio is at most 0.25.

Regarding SEFI, the enrichment ratio was 6.95.

SHQF: the enrichment ratio is at most 0.25.

SASL: the enrichment ratio worked out at 7.66.

On to YYAI, for which the enrichment ratio is at most 0.25.

As for VPVW, the enrichment ratio was at most 0.25.

Regarding YPFW, the enrichment ratio was at most 0.25.

For the variant LCNM, the enrichment ratio is at most 0.25.

In the case of KGFL, the enrichment ratio was at most 0.25.

As for QRLQ, the enrichment ratio was at most 0.25.

On to LMSY, for which the enrichment ratio was at most 0.25.

On to IFEE, for which the enrichment ratio was at most 0.25.

Consider FWEA, for which the enrichment ratio is at most 0.25.

For the variant LSCA, the enrichment ratio was at most 0.25.

For the variant PHQL, the enrichment ratio was at most 0.25.

Turning to QPHV, the enrichment ratio was at most 0.25.

For the variant PECE, the enrichment ratio was at most 0.25.

Take EVEP: the enrichment ratio was at most 0.25.

With FSVR, the enrichment ratio is at most 0.25.

Turning to DNTL, the enrichment ratio was at most 0.25.

With RVMA, the enrichment ratio was at most 0.25.

For IIPQ, the enrichment ratio was at most 0.25.

Turning to LFSK, the enrichment ratio was at most 0.25.

On to SWHI, for which the enrichment ratio is at most 0.25.

For GDST, the enrichment ratio was 2.69.

In the case of WMHP, the enrichment ratio was at most 0.25.

As for TAGS, the enrichment ratio came out at 8.39.

For the variant PFSF, the enrichment ratio is at most 0.25.

On to VKAI, for which the enrichment ratio is at most 0.25.

Take DYHI: the enrichment ratio is at most 0.25.

As for FRVR, the enrichment ratio was at most 0.25.

LLPY: the enrichment ratio was at most 0.25.

WVAM: the enrichment ratio was at most 0.25.

In the case of EQDH, the enrichment ratio was at most 0.25.

As for TDPA, the enrichment ratio is at most 0.25.

In the case of GEPI, the enrichment ratio is at most 0.25.

On to PIFI, for which the enrichment ratio is at most 0.25.

On to LIKR, for which the enrichment ratio was at most 0.25.

For PKGS, the enrichment ratio was at most 0.25.

With DVAT, the enrichment ratio is at most 0.25.

In the case of MHKG, the enrichment ratio is at most 0.25.

As for GTLV, the enrichment ratio turned out to be 7.85.

As to LYQM, the enrichment ratio is at most 0.25.

For the variant TLGM, the enrichment ratio was determined as 9.54.

Turning to NYSL, the enrichment ratio was at most 0.25.

Regarding LFLN, the enrichment ratio is at most 0.25.

For the variant KMVF, the enrichment ratio is at most 0.25.

For EMFH, the enrichment ratio was at most 0.25.

With PNAV, the enrichment ratio is at most 0.25.

With NWVF, the enrichment ratio is at most 0.25.

For WYQN, the enrichment ratio is at most 0.25.

Take DYQT: the enrichment ratio is at most 0.25.

Regarding FMML, the enrichment ratio was at most 0.25.

For the variant QDLD, the enrichment ratio is at most 0.25.

Take AQFI: the enrichment ratio is at most 0.25.

Take DNIC: the enrichment ratio was at most 0.25.

Turning to NDGG, the enrichment ratio is at most 0.25.

Consider SCKW, for which the enrichment ratio is at most 0.25.

For LMIM, the enrichment ratio was at most 0.25.

In the case of VDEF, the enrichment ratio is at most 0.25.

On to PFNP, for which the enrichment ratio is at most 0.25.

As to MNEY, the enrichment ratio is at most 0.25.

Take WPGN: the enrichment ratio is at most 0.25.

For the variant NHTP, the enrichment ratio is at most 0.25.

In the case of TADI, the enrichment ratio came out at 10.8.

As to EQPV, the enrichment ratio was at most 0.25.

On to IALN, for which the enrichment ratio amounted to 1.51.

For MPNM, the enrichment ratio was at most 0.25.

Consider GAPG, for which the enrichment ratio is at most 0.25.

In the case of SCPS, the enrichment ratio was at most 0.25.

Consider FFLW, for which the enrichment ratio is at most 0.25.

On to LALG, for which the enrichment ratio turned out to be 2.29.

On to TWMV, for which the enrichment ratio was at most 0.25.

Take EIFW: the enrichment ratio was at most 0.25.

Consider TMWD, for which the enrichment ratio is at most 0.25.

Take MSQR: the enrichment ratio was at most 0.25.

As to QFWK, the enrichment ratio was at most 0.25.

RFHV: the enrichment ratio was at most 0.25.

Turning to MLRI, the enrichment ratio is at most 0.25.

ECTL: the enrichment ratio was at most 0.25.

As for RTTW, the enrichment ratio is at most 0.25.

As to AHCL, the enrichment ratio was determined as 9.7.

With VVHA, the enrichment ratio is at most 0.25.

With WTTK, the enrichment ratio was at most 0.25.

On to GWTS, for which the enrichment ratio was at most 0.25.

As for AGAA, the enrichment ratio amounted to 2.46.

MKCL: the enrichment ratio is 16.5.

As for YKMT, the enrichment ratio worked out at 0.253.

In the case of GSQN, the enrichment ratio is at most 0.25.

Regarding SQKF, the enrichment ratio is at most 0.25.

On to NLIH, for which the enrichment ratio is at most 0.25.

For WFSM, the enrichment ratio is at most 0.25.

Regarding DCPW, the enrichment ratio is at most 0.25.

As to MTCL, the enrichment ratio was 12.8.

Consider VSDG, for which the enrichment ratio was at most 0.25.

With LLEY, the enrichment ratio is at most 0.25.

With ITIK, the enrichment ratio was at most 0.25.

In the case of QITV, the enrichment ratio is at most 0.25.

For the variant KIYH, the enrichment ratio is at most 0.25.

As for TRHP, the enrichment ratio was at most 0.25.

For the variant NCFH, the enrichment ratio is at most 0.25.

Consider HPFI, for which the enrichment ratio was at most 0.25.

As for GDER, the enrichment ratio was at most 0.25.

As to VIQS, the enrichment ratio was at most 0.25.

Take PHYK: the enrichment ratio was at most 0.25.

TTAP: the enrichment ratio was at most 0.25.

With HSPY, the enrichment ratio is at most 0.25.

Turning to YLWM, the enrichment ratio was at most 0.25.

Take ISQR: the enrichment ratio was at most 0.25.

With CNSA, the enrichment ratio was at most 0.25.

Turning to SPVM, the enrichment ratio is at most 0.25.
